Measured values reported in publication PMC9834212.
These are yes or no findings as the source states them, for the method shown. Binding seen in cells or lysates may run through a third protein. Some binding calls cover weakened binding; strength is not graded here. Where a sequence is shown, tags or fusion partners need not be part of it.

Protein sequences, listed by entry. Tags and fused reporters are not part of them.
UniProt P13861: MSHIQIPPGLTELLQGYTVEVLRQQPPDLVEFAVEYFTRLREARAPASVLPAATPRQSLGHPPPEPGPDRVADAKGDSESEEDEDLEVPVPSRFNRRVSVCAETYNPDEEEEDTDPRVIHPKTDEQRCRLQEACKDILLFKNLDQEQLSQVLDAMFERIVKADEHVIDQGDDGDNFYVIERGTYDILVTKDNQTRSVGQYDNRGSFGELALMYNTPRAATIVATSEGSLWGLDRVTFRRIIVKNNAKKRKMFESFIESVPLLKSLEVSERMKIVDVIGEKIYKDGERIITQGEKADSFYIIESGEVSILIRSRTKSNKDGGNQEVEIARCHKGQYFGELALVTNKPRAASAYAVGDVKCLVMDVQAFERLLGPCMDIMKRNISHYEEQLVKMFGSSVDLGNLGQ
UniProt P31323: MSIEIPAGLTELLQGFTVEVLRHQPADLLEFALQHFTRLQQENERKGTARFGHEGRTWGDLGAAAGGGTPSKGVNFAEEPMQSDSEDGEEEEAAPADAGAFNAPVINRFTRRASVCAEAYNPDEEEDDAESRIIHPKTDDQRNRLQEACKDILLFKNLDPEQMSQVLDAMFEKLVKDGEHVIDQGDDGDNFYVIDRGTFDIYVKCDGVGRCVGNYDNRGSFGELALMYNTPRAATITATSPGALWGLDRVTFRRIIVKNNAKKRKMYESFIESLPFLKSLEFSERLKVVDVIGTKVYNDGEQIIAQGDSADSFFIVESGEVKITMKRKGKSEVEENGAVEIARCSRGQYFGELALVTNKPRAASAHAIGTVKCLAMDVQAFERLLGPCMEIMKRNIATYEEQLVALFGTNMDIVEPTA
UniProt P10644: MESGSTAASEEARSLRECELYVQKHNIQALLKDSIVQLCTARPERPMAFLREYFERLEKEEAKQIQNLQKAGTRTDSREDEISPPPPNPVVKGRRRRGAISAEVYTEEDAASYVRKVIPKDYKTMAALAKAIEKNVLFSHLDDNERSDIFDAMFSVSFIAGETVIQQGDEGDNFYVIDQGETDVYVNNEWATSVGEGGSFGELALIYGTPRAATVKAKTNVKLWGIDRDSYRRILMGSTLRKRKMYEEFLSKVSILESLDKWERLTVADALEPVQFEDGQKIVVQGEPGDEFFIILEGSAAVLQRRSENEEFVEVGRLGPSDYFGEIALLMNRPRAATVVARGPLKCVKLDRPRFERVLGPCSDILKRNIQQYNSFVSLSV
UniProt P31321: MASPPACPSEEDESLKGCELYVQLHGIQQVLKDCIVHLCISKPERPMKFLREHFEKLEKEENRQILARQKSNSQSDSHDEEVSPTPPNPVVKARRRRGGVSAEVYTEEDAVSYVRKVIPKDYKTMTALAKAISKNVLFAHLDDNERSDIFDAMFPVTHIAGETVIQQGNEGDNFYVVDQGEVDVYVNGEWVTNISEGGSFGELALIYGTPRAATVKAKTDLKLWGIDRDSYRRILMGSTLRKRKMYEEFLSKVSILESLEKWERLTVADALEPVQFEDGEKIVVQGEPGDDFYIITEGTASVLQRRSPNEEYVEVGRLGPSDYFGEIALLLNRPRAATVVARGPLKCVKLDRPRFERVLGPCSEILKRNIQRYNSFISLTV

B1: HA-mZfp185 (protein, UniProt Q62394 1-352)
chain: MTTEDYKKLAPYNIRRSSISGTEEEEVPFTPDEQKRRSQAALGVLRKTAPREHSYVLSAAKKTTSSPTQELQSPFLAKRVDVVDEDVLPEKNQEPPALARPDSGLSSSTTEKIAHRQITPPTAELHLVAPDLEALSTPDSCEENNAAPKIIKEIPGTLQDGQSDPTVASQQLADLSILEPLGSPSGAEQQIKAEDCTNMLMSPSSCMVTVTVSDTSEQSQLCVPGVSSKVDSSSTIKGILFVKEYMNTSEVSSGKPVSSHCDSPSSIEDSLDLAKKPPHEGTPSERPTEGVCTYCSHEIQDCPKITLEHLGICCHEYCFKCGICNKPMGDLLDQIFIHRDTIHCGKCYEKLF
B2: HA-ZNF185 deletion mutant (Δaa 534–605) (protein, UniProt O15231-1)
chain: MSISALGGRTKGKPLPPGEEERNNVLKQMKVRTTLKGDKSWITKQDESEGRTIELPSGRSRATSFSSAGEVPKPRPPSTRAPTGYIIRGVFTKPIDSSSQPQQQFPKANGTPKSAASLVRTANAGPPRPSSSGYKMTTEDYKKLAPYNIRRSSTSGDTEEEEEEEVVPFSSDEQKRRSEAASGVLRRTAPREHSYVLSAAKKSTGPTQETQAPFIAKRVEVVEEDGPSEKSQDPPALARSTPGSNSADGGRTKASRAIWIECLPSMPSPAGSQELSSRGEEIVRLQILTPRAGLRLVAPDVEGMRSSPGNKDKEAPCSRELQRDLAGEEAFRAPNTDAARSSAQLSDGNVGSGATGSRPEGLAAVDIGSERGSSSATSVSAVPADRKSNSTAAQEDAKADPKGALADYEGKDVATRVGEAWQERPGAPRGGQGDPAVPAQQPADPSTPERQSSPSGSEQLVRRESCGSSVLTDFEGKDVATKVGEAWQDRPGAPRGGQGDPAVPTQQPADPSTPEQQNSPSGSEQFVRRESCTSFAMEKKPPCGSTPYSERTTGGICTYCNREIRDCPKITLEHLGICCHEYCFKCGICSKPMGDLLDQIFIHRDTIHCGKCYEKLF

Columns and labels:
Assay in all cases: co-IP; PKA regulatory subunit-Flag and HA-ZNF185 (or its deletion mutant, or HA-mZfp185) overexpressed in HEK293T cells; lysates on anti-FLAG M2 affinity gel for 1 h at 4 °C; blots
PKA RIIα-Flag = PKA RIIα-Flag (UniProt P13861)
PKA RIIβ-Flag = PKA RIIβ-Flag (UniProt P31323)
PKA RIα-Flag = PKA RIα-Flag (UniProt P10644)
PKA RIβ-Flag = PKA RIβ-Flag (UniProt P31321)

Binder	binding (PKA RIIα-Flag)	binding (PKA RIIβ-Flag)	binding (PKA RIα-Flag)	binding (PKA RIβ-Flag)
B1	binds	binds	binds	binds
B2	no binding	no binding		
